Test results: paper PMC9911399, “Two distinct binding modes provide the RNA-binding protein RbFox with extraordinary sequence specificity”
Numbering of substitutions follows the chain as printed; changes in the protein carry UniProt numbers. The list shows a part of the results.

T1: RBFOX1 RRM RbFoxmut (Fox-RRM*) (Homo sapiens, UniProt Q9NWB1 109-208, R118D;E147R;N151S;E152T)
T1 sequence: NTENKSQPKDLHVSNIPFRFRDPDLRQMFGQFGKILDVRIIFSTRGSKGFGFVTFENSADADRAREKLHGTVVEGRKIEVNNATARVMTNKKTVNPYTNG

B1: AGUCACU (DNA:RNA)
RNA: GGGAGACCGGAAUUCAGAUUGUCCAGUCACUUUAAAUCCCGUCGUAGCCACCA
DNA 1: CAATCTGAATTCCGGTCTCCC
DNA 2: TGGTGGCTACGACGGGATT
B2: UUGGCGC (DNA:RNA)
RNA: GGGAGACCGGAAUUCAGAUUGUCCUUGGCGCUUAAAUCCCGUCGUAGCCACCA
DNA 1: CAATCTGAATTCCGGTCTCCC
DNA 2: TGGTGGCTACGACGGGATT
B3: UUACUUA (DNA:RNA)
RNA: B2 RNA with G27A, G28C, C29U, G30U, C31A
DNA 1: CAATCTGAATTCCGGTCTCCC
DNA 2: TGGTGGCTACGACGGGATT
B4: GAGGAAC (DNA:RNA)
RNA: B2 RNA with U25G, U26A, C29A, G30A
DNA 1: CAATCTGAATTCCGGTCTCCC
DNA 2: TGGTGGCTACGACGGGATT
B5: GUUUGCU (DNA:RNA)
RNA: B1 RNA with A25G, G26U, C28U, A29G
DNA 1: CAATCTGAATTCCGGTCTCCC
DNA 2: TGGTGGCTACGACGGGATT
B6: AAGGGAU (DNA:RNA)
RNA: B1 RNA with G26A, U27G, C28G, A29G, C30A
DNA 1: CAATCTGAATTCCGGTCTCCC
DNA 2: TGGTGGCTACGACGGGATT
B7: AUGUUUA (DNA:RNA)
RNA: B2 RNA with U25A, G28U, C29U, G30U, C31A
DNA 1: CAATCTGAATTCCGGTCTCCC
DNA 2: TGGTGGCTACGACGGGATT
B8: AGUCGAU (DNA:RNA)
RNA: B1 RNA with A29G, C30A
DNA 1: CAATCTGAATTCCGGTCTCCC
DNA 2: TGGTGGCTACGACGGGATT
B9: GAAGGGG (DNA:RNA)
RNA: B2 RNA with U25G, U26A, G27A, C29G, C31G
DNA 1: CAATCTGAATTCCGGTCTCCC
DNA 2: TGGTGGCTACGACGGGATT

Biological target: T1, RBFOX1 RRM RbFoxmut (Fox-RRM*)
Test: EMSA; HiTS-Eq, 1 nM pool, 10 min; buffer printed only for the single-RNA assays: 10 mM Tris pH 7.5, 150 mM NaCl, 3.4 mM EDTA, 0.001% NP-40, 30 C
Settings: tags: His6 N-terminal (pET28a); label: 5' 32P
Outline: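 These values rest on relative association constants, computed from read-count changes of each RNA species versus the control reaction and normalised to the cognate motif. Reads came from free RNA recovered by 8% native PAGE after purified RbFox RRM (wild type or mutant) at increasing concentrations was equilibrated for 10 min in 50 µL with 1 nM of a 5′-radiolabelled pool with 7 randomized nucleotides and DNA-annealed flanks.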

Binder | binding signal
B1 | 0.0668 KA relative to UGCAUGU
B2 | 0.108 KA relative to UGCAUGU
B3 | 0.124 KA relative to UGCAUGU
B4 | 0.0766 KA relative to UGCAUGU
B5 | 0.223 KA relative to UGCAUGU
B6 | 0.0935 KA relative to UGCAUGU
B7 | 0.175 KA relative to UGCAUGU
B8 | 0.0858 KA relative to UGCAUGU
B9 | 0.0469 KA relative to UGCAUGU
